Test results: article PMC10424213
No constants are given. Whether binding was seen depends on the method and setting. Binding seen in cells or lysates may run through a third protein. Some results given as binding are weak or reduced against the parent protein; the word gives no strength. For some assays here: Sequences can lack the tags named with a protein.

Amino acid sequences for entries named in this document (tags omitted). Residues count along the entry.
UniProt P03661, residues 19-424: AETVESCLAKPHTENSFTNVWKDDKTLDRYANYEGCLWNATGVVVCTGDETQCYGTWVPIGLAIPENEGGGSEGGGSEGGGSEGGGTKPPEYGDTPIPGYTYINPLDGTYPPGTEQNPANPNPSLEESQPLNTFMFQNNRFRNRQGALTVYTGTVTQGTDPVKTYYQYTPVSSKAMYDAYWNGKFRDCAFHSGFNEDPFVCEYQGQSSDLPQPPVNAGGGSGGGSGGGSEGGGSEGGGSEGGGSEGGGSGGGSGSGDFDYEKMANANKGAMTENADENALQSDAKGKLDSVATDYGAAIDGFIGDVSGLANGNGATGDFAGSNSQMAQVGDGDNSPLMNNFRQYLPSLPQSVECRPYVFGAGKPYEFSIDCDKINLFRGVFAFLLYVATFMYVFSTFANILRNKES

B1: TolQ with a C-terminal hemagglutinin (HA) tag (protein, UniProt P0ABU9 1-230)
chain: MTDMNILDLFLKASLLVKLIMLILIGFSIASWAIIIQRTRILNAAAREAEAFEDKFWSGIELSRLYQESQGKRDNLTGSEQIFYSGFKEFVRLHRANSHAPEAVVEGASRAMRISMNRELENLETHIPFLGTVGSISPYIGLFGTVWGIMHAFIALGAVKQATLQMVAPGIAEALIATAIGLFAAIPAVMAYNRLNQRVNKLELNYDNFMEEFTAILHRQAFTVSESNKG
B2: TolR overproduced from a vector (protein, UniProt P0ABV6 1-142)
chain: MARARGRGRRDLKSEINIVPLLDVLLVLLLIFMATAPIITQSVEVDLPDATESQAVSSNDNPPVIVEVSGIGQYTVVVEKDRLERLPPEQVVAEVSSRFKANPKTVFLIGGAKDVPYDEIIKALNLLHSAGVKSVGLMTQPI

Columns and labels:
[1] = target: pIII fused to the adenylate cyclase T18 domain, produced in E. coli W3110 (fd phage) (UniProt P03661); experiment: pull-down
[2] = target: native pIII protein, full length, produced in E. coli W3110 (fd phage) (UniProt P03661); experiment: co-IP

Binder | binding [1] | binding [2]
B1 | binds | 
B2 |  | binds
